Hit rate of the full screen: of about 220,000 compounds, about 5,700 (2.6%) were called active. The shares of active, inactive and inconclusive entries below differ from those in the screen. The call rests on the fitted dose curve; in most records, active means well fitted inhibition curve with a large enough effect; inconclusive means small, poorly fitted or top-dose-only effect; inactive means no such curve, though single readings can be large or run the other way. Potencies of inconclusive entries are doubtful fits and often do not repeat.
Each compound was assayed against Lysine-specific demethylase 5B (Homo sapiens) (UniProt Q9UGL1) (assay: Primary screen for KDM5B Histone Demethylases FDH-coupled qHTS). Conditions: FDH-coupled NADH fluorescence (FDH is formaldehyde dehydrogenase); series mostly up to 57.7 µM.
In short: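 Inhibition is measured as reduced NADH fluorescence generation from FDH coupling to formaldehyde release. Truncated KDM5BΔAP at 200 nM final acts on H3K4me3 peptide (12.5 µM in substrate mix) in pH 7.5 HEPES buffer with Tween-20, 30 min, room temperature.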
Further: nearly all actives have a fitted effect of over 70% in size.
Potency means the concentration at half of the fitted maximal effect; tags describe the fitted curve by direction and shape.

Chain of UniProt Q9UGL1 (Q9UGL1 whole entry, looked up, the tested form may be a part): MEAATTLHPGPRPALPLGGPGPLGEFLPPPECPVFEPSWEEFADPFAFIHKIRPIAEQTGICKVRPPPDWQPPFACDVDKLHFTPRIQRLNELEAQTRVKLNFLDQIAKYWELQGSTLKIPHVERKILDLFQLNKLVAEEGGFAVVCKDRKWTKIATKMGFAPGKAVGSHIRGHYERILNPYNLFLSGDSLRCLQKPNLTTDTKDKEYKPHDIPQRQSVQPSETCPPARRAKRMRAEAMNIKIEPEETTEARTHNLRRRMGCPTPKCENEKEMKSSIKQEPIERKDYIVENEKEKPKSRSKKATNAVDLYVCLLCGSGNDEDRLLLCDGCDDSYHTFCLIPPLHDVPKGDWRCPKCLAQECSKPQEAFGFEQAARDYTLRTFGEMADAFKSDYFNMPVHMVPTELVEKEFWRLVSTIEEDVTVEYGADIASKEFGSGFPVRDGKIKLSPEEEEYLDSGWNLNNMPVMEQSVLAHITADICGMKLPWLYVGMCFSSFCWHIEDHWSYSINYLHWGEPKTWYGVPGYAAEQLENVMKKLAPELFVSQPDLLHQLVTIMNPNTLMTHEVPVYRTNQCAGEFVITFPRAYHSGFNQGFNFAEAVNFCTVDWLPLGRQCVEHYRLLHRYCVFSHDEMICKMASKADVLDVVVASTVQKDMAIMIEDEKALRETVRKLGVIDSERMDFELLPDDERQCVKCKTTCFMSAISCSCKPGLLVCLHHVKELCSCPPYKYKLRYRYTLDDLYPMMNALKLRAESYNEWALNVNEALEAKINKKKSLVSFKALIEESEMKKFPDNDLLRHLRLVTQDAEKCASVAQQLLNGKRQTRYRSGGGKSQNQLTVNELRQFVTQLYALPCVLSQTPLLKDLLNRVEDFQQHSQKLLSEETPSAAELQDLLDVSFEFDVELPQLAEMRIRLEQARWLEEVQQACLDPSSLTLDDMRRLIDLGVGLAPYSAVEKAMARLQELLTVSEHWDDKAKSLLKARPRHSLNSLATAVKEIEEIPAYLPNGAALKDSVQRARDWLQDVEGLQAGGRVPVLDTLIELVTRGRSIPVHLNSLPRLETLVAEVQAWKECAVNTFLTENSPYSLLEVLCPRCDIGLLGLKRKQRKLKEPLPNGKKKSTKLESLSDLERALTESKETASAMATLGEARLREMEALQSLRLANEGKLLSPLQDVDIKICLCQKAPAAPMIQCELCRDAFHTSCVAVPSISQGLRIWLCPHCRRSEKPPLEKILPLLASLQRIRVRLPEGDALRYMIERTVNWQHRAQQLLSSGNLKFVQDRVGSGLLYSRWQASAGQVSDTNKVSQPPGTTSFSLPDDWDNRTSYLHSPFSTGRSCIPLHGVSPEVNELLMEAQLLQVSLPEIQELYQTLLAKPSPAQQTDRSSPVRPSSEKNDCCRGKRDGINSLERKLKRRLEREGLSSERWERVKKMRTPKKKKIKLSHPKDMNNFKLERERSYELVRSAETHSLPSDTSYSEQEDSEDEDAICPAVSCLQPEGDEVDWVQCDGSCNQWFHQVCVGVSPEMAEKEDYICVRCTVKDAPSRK

| Structure (SMILES) | Potency |
| --- | --- |
| Cc1nc(-c2cccs2)cc([C@H]2CN3CC[C@H]2C[C@@H]3CNC(=O)c2ccco2)n1 | inconclusive: 39.8 µM [inhibitor, single point] |
| O=CC(Br)P(=O)(N1CCOCC1)N1CCOCC1 (configuration not stated) | inconclusive: 25.1 µM [inhibitor, single point] |
| O=C(O)COCC(=O)N1C[C@@H]2C[C@H](C1)c1c(-c3ccc4ccccc4c3)ccc(=O)n1C2 | inconclusive: 10 µM [inhibitor, partial curve, poor fit] |
| COc1cc(CN2CCN(C(=O)COc3ccc4ccccc4c3)CC2)cc(OC)c1O | inconclusive: 14.1 µM [inhibitor, partial curve, poor fit] |
| CC(C)n1nc(C(=O)NCC2(N3CCOCC3)CCCCC2)c2ccccc2c1=O | inactive |
| CC(C)CCN1CCCC2(CC(c3cccnc3)=NO2)C1 (configuration not stated) | inconclusive: 100 µM [inhibitor, partial curve, poor fit] |
| O=C(O)CCC(=O)N1C[C@@H]2C[C@H](C1)c1ccc(-c3ccc(Cl)cc3)c(=O)n1C2 | active: 35.5 µM |
| CC(C)N1CC2CCC(C1)N2S(=O)(=O)C1CC1 | inconclusive: 79.4 µM [inhibitor, partial curve] |
| Cc1cc(OCC(=O)N2CCN(CCc3ccncc3)CC2)cc(C)c1Cl | inconclusive: 15.8 µM [inhibitor, single point] |
| Cc1nc(-c2ccc(N(C)C)cc2)cc([C@H]2CN3CC[C@H]2C[C@@H]3CNC(=O)N2CCOCC2)n1 | active: 28.2 µM |
| O=C(Nc1ccc2n(c1=O)C[C@H]1C[C@@H]2CN(Cc2ccc(F)cc2)C1)c1cccs1 | active: 31.6 µM |
| CN(C)Cc1ccccc1-c1ccc2n(c1=O)C[C@H]1C[C@@H]2CN(C(=O)c2ccco2)C1 | active: 31.6 µM |
| CC(=O)Nc1ccc(S(=O)(=O)NC[C@H]2C[C@@H]3CCN2C[C@@H]3c2cc(-c3ccco3)nc(C)n2)cc1 | active: 31.6 µM |
| COCC1CN(C2CCC2)CC12CCN(Cc1cccnc1)CC2 (configuration not stated) | active: 28.2 µM |
| Cc1cc(CN2CCC3(CC(C(C)C)=NO3)C2)no1 (configuration not stated) | inconclusive: 100 µM [inhibitor, partial curve] |
| COc1ccc(C2SCC(=O)Nc3[nH]ncc32)cc1OC1CCCC1 (configuration not stated) | inactive |
| COc1cccc2cc(-c3ccc(OCC(=O)N4CCN(C)CC4)cc3)c(=O)oc12 | inconclusive: 20 µM [inhibitor, partial curve, poor fit] |
| CC12CCC(=O)C=C1CCC1C2CCC2(C)C1CC[C@]2(C)O (some centres not stated) | inactive |
| CN1C(=O)N(C)C(=O)C2(Cc3ccccc3N3CCCC32)C1=O (configuration not stated) | inconclusive: 20 µM [inhibitor, partial curve, poor fit] |
| O=S(=O)(NC[C@H]1C[C@@H]2CCN1C[C@@H]2CN1CCc2ccccc2C1)c1ccccc1 | inconclusive: 31.6 µM [inhibitor, single point] |
| CN1CCN(C(=O)Cc2cccn2-c2ccc(Cl)cc2)CC1 | inactive |
| O=C(Nc1ccc2n(c1=O)C[C@H]1C[C@@H]2CN(C(=O)c2ccccc2)C1)NC1CCCCC1 | active: 35.5 µM |
| COc1ccc(C2CC(=O)Oc3c2c(=O)oc2ccccc32)c(OC)c1OC (configuration not stated) | inconclusive: 22.4 µM [inhibitor, partial curve, poor fit] |

| Structure (SMILES) | Potency |
| --- | --- |
| N#Cc1ccc(NC(=O)CCC2CCCCC2)cc1Cl | inactive |
| CC(Nc1ccc([N+](=O)[O-])c2nonc12)c1ccccc1Cl (configuration not stated) | inconclusive: 7.08 µM [inhibitor, full curve, poor fit] |
| O=C(O)c1cn(C2CCCCCC2)nn1 | inactive |
| COCC(=O)NC[C@H]1C[C@@H]2CCN1C[C@@H]2CN1CCc2ccccc2C1 | inactive |
| Cc1ccc(-n2c(/C=C/c3cccc4ccccc34)nc3ccccc3c2=O)cc1 | inactive |
| Cc1oc(-c2cccs2)nc1CC(=O)N1CCN(CC(=O)N2CCCCC2)CC1 | inconclusive: 17.8 µM [inhibitor, partial curve, poor fit] |
| COc1ccccc1NC(=O)Nc1ccc2n(c1=O)C[C@H]1C[C@@H]2CN(C2CCOCC2)C1 | active: 15.8 µM |
| O=C(CN1CC=C(c2ccccc2)CC1)N(C1CCCCC1)C1CCS(=O)(=O)C1 (configuration not stated) | inconclusive: 25.1 µM [inhibitor, single point] |
| COc1ccccc1OCC(=O)N1CCN(Cc2nc(N)c3ccccc3n2)CC1 | inactive |
| C=CCN1C[C@@H]2CN(S(=O)(=O)c3cccnc3)C[C@]2(C(=O)O)C1 | inconclusive: 10 µM [inhibitor, partial curve] |
| CC(=O)N1C[C@@H]2C[C@H](C1)c1ccc(NC(=O)Nc3cccc(C#N)c3)c(=O)n1C2 | inconclusive: 44.7 µM [inhibitor, partial curve, poor fit] |
| CCOc1cc2c(cc1OCC)-n1cccc1C(c1ccc(OC)c(O)c1)NC2 (configuration not stated) | inconclusive: 39.8 µM [inhibitor, single point] |
| COc1cc(C)cc2oc(=O)c(CC(=O)N3CCN(CCc4ccccn4)CC3)c(C)c12 | inconclusive: 14.1 µM [inhibitor, partial curve, poor fit] |
| O=C(CN1CCN(Cc2ccccc2)CC1)Nc1ccc(Cl)cc1C(=O)c1ccccc1 | inactive |
| O=C(NC1CCSC1=O)c1cccs1 (configuration not stated) | inactive |
| CCOC(=O)c1ccc(NC(=O)CSc2nc3c(cc2C#N)N2CCC3CC2)cc1 | inconclusive: 0.562 µM [inhibitor, full curve, poor fit] |
| COc1ccc2c(c1)C1(CCN(C(=O)c3ccccc3Br)C1)C(=O)N2 (configuration not stated) | inconclusive: 20 µM [inhibitor, single point] |
| O=C1NCCCCCCN[C@H]2CCCC[C@@H]12 | inactive |
| Cc1cccc(-n2c(CC3C(=O)Nc4ccc(C)cc43)nc3ccccc3c2=O)c1 (configuration not stated) | inconclusive: 15.8 µM [inhibitor, partial curve, poor fit] |
| N#CC1(c2ccccc2)CCN(C(=O)c2cccc(-n3cnnc3)c2)CC1 | inactive |
| Cn1c(O)c(/C=N/NC(=O)c2ccncc2)c(=O)[nH]c1=S | inconclusive: 12.6 µM [inhibitor, partial curve, poor fit] |
| O=C1NCCN2CC3(CCN(S(=O)(=O)c4cccnc4)CC3)CC12 (configuration not stated) | inconclusive: 11.2 µM [inhibitor, partial curve] |
| COc1ccc(-c2ccc(=O)n3c2[C@@H]2C[C@@H](CN(C(=O)C(C)(C)C)C2)C3)cc1 | inconclusive: 31.6 µM [inhibitor, partial curve] |

| Structure (SMILES) | Potency |
| --- | --- |
| FC(F)(F)c1cccc(-n2nnnc2C2(N3CCCCC3)CCCCC2)c1 | inactive |
| Cn1cccc1CN1CCC2(CC1)C(=O)Nc1ccccc12 | inconclusive: 89.1 µM [inhibitor, partial curve] |
| COCC1CN(C)CC12CCN(Cc1ccncc1)CC2 (configuration not stated) | inconclusive: 3.98 µM [inhibitor, full curve, poor fit] |
| O=C(Nc1ccccc1)Nc1ccc2n(c1=O)C[C@H]1C[C@@H]2CN(C(=O)c2cccs2)C1 | inconclusive: 39.8 µM [inhibitor, partial curve, poor fit] |
| COc1ccc(NC(=O)c2cccn(Cc3ccc(Cl)cc3)c2=O)c(OC)c1 | inconclusive: 15.8 µM [inhibitor, partial curve, poor fit] |
| O=C(Nc1ccccc1)c1cn(Cc2ccccc2)nn1 | inactive |
| COc1cccc([C@@H]2CCN(Cc3cc4ccccc4n(C)c3=O)C[C@H]2O)c1 | inconclusive: 25.1 µM [inhibitor, partial curve, poor fit] |
| O=c1[nH]c(=O)n(CCc2ccc(F)cc2)c(O)c1/C=N/N1CCCCC1 | inconclusive: 15.8 µM [inhibitor, partial curve, poor fit] |
| COc1ccc(CN2CCN(C(=O)COc3ccc4ccccc4c3)CC2)cc1OC | inconclusive: 8.91 µM [inhibitor, partial curve, poor fit] |
| O=C(Nc1ccccc1)N1C[C@@H]2C[C@H](C1)c1ccc(C3CCCCC3)c(=O)n1C2 | inconclusive: 28.2 µM [inhibitor, partial curve] |
| CCN(CC)C(=O)c1ccc(NC(=O)CSc2ccc3ccccc3n2)cc1 | inactive |
| CN1CCN2C(=O)N(c3ccccc3)C[C@H]2C1 | inactive |
| CC(NC(C)c1ccc(Cl)cc1)C(=O)c1c[nH]c2ccccc12 (configuration not stated) | inactive |
| CN1CCC(N2C[C@@H]3C[C@H](C2)c2ccc(-c4ccc(OC(F)(F)F)cc4)c(=O)n2C3)CC1 | inconclusive: 22.4 µM [inhibitor, partial curve] |
| O=C(Nc1nccs1)c1c(O)c2c(n(Cc3ccco3)c1=O)CCCC2 | inconclusive: 25.1 µM [inhibitor, single point] |
| CNc1ccc(OC2CCNCC2)nc1 | active: 28.2 µM |
| CCN(CC)C(=O)c1ccc(NC(=O)COc2ccc3c(C)cc(=O)oc3c2)cc1 | inconclusive: 25.1 µM [inhibitor, partial curve, poor fit] |
| COCCC(=O)N1C[C@@H]2C[C@H](C1)c1ccc(-c3cccc(C(F)(F)F)c3)c(=O)n1C2 | active: 39.8 µM |
| CCCNC(=O)OC[C@H]1C[C@@H]2CCN1C[C@@H]2c1cc(C(CC)CC)nc(-c2ccncc2)n1 | inconclusive: 25.1 µM [inhibitor, single point] |
| O=C(O)CSCC(=O)N1C[C@@H]2C[C@H](C1)c1c(-c3ccccc3F)ccc(=O)n1C2 | inactive |
| COc1ccc(C(=O)N2C[C@@H]3C[C@H](C2)c2ccc(NC(=O)CN(C)C)c(=O)n2C3)cc1 | inconclusive: 31.6 µM [inhibitor, single point] |

Reference: PubChem BioAssay AID1347165 (National Center for Advancing Translational Sciences (NCATS), 2019)
